Here are results for 52 molecules from PubChem BioAssay AID1508623 (National Center for Advancing Translational Sciences (NCATS), 2021).

Each structure is given as a SMILES string. About 450 (0.94%) of roughly 48,000 compounds were called active. About 19% were inconclusive and are not listed. The call rests on the fitted dose curve; in most records, active means well fitted inhibition curve with a large enough effect; inconclusive means small, poorly fitted or top-dose-only effect; inactive means no such curve, though single readings can be large or run the other way. The list shows a part of the results.

This experiment is described as follows: Primary qHTS for Identification of Small Molecule Inhibitors of Huntingtin Promoter Activity. Further: nearly all actives have a fitted effect of over 50% in size. Particulars: HEK293 HTT promoter firefly luciferase reporter (activity 0% = vehicle and -100% = no light), 24 h; series mostly up to 57.5 µM; activity change, negative = inhibition: at the top concentration. In outline:
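HEK293 Fluc reporter, 2,500 cells/well, 24 h pre-culture; cpds up to 57.5 uM final, 24 h 37 degrees C; Dual-Glo, 10 min RT; normalized vehicle = 0%, zero RLU = -100%.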
(In general: Quantitative high-throughput screening tests each substance at several concentrations.)
With `CCCCCc1nc2ccccc2c(=O)n1-c1ccc(C)cc1`, the “activity change, negative = inhibition” value is inactive: -9.27%.

As to `CCCC(C)(COC(N)=O)COC(=O)NC(C)C` (configuration not stated), the activity change, negative = inhibition result was “inactive”.

In the case of `CCCC1CCCCN1` (configuration not stated), the “activity change, negative = inhibition” value is inactive: -4.6%.

Turning to `Cc1ccc(NC(=O)CN2C(=O)CN=C(c3ccccc3)c3ccccc32)cc1`, the “activity change, negative = inhibition” value is inactive: -12.8%.

Consider `CCN(Cc1ccc(Cl)nc1)/C(=C/[N+](=O)[O-])NC`, for which the “activity change, negative = inhibition” value was inactive: -1.33%.

For `CN1CC[C@]23c4c5ccc(O)c4O[C@H]2[C@@H](O)CC[C@H]3[C@H]1C5`, the “activity change, negative = inhibition” value was inactive: -2.87% [at 116 µM].

Take `COc1cccc(-n2c(/C=C/c3ccccc3O)nc3ccccc3c2=O)c1`: the “activity change, negative = inhibition” value was inactive: -21.2%.

As for `CC(O)CN1CCN(CC(=O)[O-])CCN(CC(=O)[O-])CCN(CC(=O)[O-])CC1.[Gd+3]` (configuration not stated), the “activity change, negative = inhibition” value was inactive: 10.3%.

Regarding `CCCCC/C=C\C/C=C\C/C=C\C/C=C\CCCC(=O)NCC(=O)O`, the “activity change, negative = inhibition” value was inactive: 15%.

Consider `O=C(N[C@H]1N=C(c2ccccc2F)c2cccc3c2N(CC3)C1=O)c1cc2ccccc2[nH]1`, for which the “activity change, negative = inhibition” value was inactive: -11.8%.

On to `CN1C2CCC(C)(C)C1CC(OC(=O)C(O)(c1cccs1)c1cccs1)C2` (configuration not stated), for which the “activity change, negative = inhibition” value is inactive: 1.86%.

As for `C=C1C[C@@H]2[C@H](CC[C@]3(C)C(=O)CC[C@@H]23)[C@@]2(C)C=CC(=O)C=C12`, the “activity change, negative = inhibition” value is inactive: -0.346%.

On to `CNC(C)Cc1ccccc1OC` (configuration not stated), for which the “activity change, negative = inhibition” value was inactive: -0.989%.

As for `COc1ccccc1N1CCNCC1`, the “activity change, negative = inhibition” value is inactive: -4.76%.

`CCN(CC)CCSc1nc2ccccc2c(=O)n1-c1ccc(Cl)cc1`: the “activity change, negative = inhibition” value was inactive: -4.56%.

Consider `CC(=O)[C@H]1CC[C@H]2[C@@H]3CC[C@H]4C[C@H](O)CC[C@]4(C)[C@H]3C(=O)C[C@]12C`, for which the “activity change, negative = inhibition” value is inactive: -4.96%.

In the case of `Cc1cccc(Cn2cccc(C(=O)Nc3ccc4c(c3)OCCO4)c2=O)c1`, the “activity change, negative = inhibition” value was inactive: 0%.

Turning to `CCC(=O)O[C@@H]1C=C2CCC3C(CCC4(C)C3CC[C@@H]4OC(=O)CC)C2CC1` (some centres not stated), the “activity change, negative = inhibition” value was inactive: 14.3%.

`Cc1ccc(Cn2cccc(C(=O)Nc3ccc4c(c3)OCO4)c2=O)cc1`: the “activity change, negative = inhibition” value was inactive: -13.1%.

For `CNC(=O)N1N=C(c2ccc(N)cc2)c2cc3c(cc2CC1C)OCO3` (configuration not stated), the “activity change, negative = inhibition” value is inactive: 63.8%.

Regarding `C[C@H]1CNCCc2ccc(Cl)cc21`, the “activity change, negative = inhibition” value was inactive: -4.55%.

Consider `CC1=NN=C(c2ccc(N)cc2)c2cc3c(cc2C1)OCO3`, for which the “activity change, negative = inhibition” value was inactive: -0.733%.

For `Cn1c(=O)n(C)c2cc(CNCCc3ccc(F)cc3)ccc21`, the “activity change, negative = inhibition” value is inactive: -5.77%.

For the molecule `CCOC(=O)C(c1c(O)c2ccccc2oc1=O)c1c(O)c2ccccc2oc1=O`, the “activity change, negative = inhibition” value was inactive: -8.59%.

Turning to `Cc1ccc2nc(NC(=O)c3cccn(Cc4ccc(Cl)cc4)c3=O)sc2c1`, the “activity change, negative = inhibition” value was inactive: -16.1%.

Regarding `CCOP(=S)(OCC)Oc1ccc2c(C)c(Cl)c(=O)oc2c1`, the “activity change, negative = inhibition” value was inactive: 13.7%.

Regarding `COC[C@@H](NC(C)=O)C(=O)NCc1ccccc1`, the “activity change, negative = inhibition” value is inactive: -4.67%.

Turning to `CCOc1ccc(NC(=O)Cn2cc(C(=O)c3ccccc3)c3ccccc32)cc1`, the “activity change, negative = inhibition” value is inactive: -9.98%.

Regarding `CC(C)C12CN3CC(C(C)C)(CN(C1)C3c1ccccn1)C2=O` (configuration not stated), the “activity change, negative = inhibition” value was inactive: 69.8%.

On to `CCOC(=O)NC(O)C(Cl)(Cl)Cl` (configuration not stated), for which the “activity change, negative = inhibition” value was inactive: -2.62%.

As for `CC(=O)O[C@@]12CO[C@H]1C[C@H](O)[C@@]1(C)C(=O)[C@H](O)C3=C(C)[C@@H](O)C[C@@](O)([C@@H](OC(=O)c4ccccc4)[C@@H]21)C3(C)C`, the “activity change, negative = inhibition” value is inactive: -1.79%.

Take `COc1ccc(C(c2ccc(OC)cc2)C(Cl)(Cl)Cl)cc1`: the “activity change, negative = inhibition” value was inactive: -9.64% [at 116 µM].

Take `Cc1ccc(-n2c(/C=C\c3ccc(F)cc3)nc3ccccc3c2=O)cc1Cl`: the “activity change, negative = inhibition” value was inactive: -5.82%.

For `COc1ccc(NC(=O)c2sc3nc4c(cc3c2N)N2CCC4CC2)cc1OC`, the “activity change, negative = inhibition” value was inactive: -30.4%.

As to `Oc1ccccc1-c1ccccc1`, the “activity change, negative = inhibition” value is inactive: -0.134%.

For `Cc1cccc(CN2CC=C(c3noc(CCC(=O)Nc4ccc(C)c(F)c4)n3)CC2)c1`, the “activity change, negative = inhibition” value is inactive: -16.8%.

Turning to `O=C(NC(O)C(Cl)(Cl)Cl)NC(O)C(Cl)(Cl)Cl` (configuration not stated), the “activity change, negative = inhibition” value was inactive: 2.28%.

For the molecule `CC(=O)NC1CCSC1=O` (configuration not stated), the “activity change, negative = inhibition” value was inactive: 13.4%.

On to `CCN(CC)CCN1C(=O)CN=C(c2ccccc2F)c2cc(Cl)ccc21`, for which the “activity change, negative = inhibition” value was inactive: 2.8%.

With `O=C(COc1ccccc1F)N1CCN(Cc2cc(=O)n3nc(-c4ccccc4Cl)sc3n2)CC1`, the “activity change, negative = inhibition” value is inactive: -17.6%.

On to `Cc1ccc2c(c1)C(Cc1nc3ccccc3c(=O)n1-c1ccc(Br)cc1)C(=O)N2` (configuration not stated), for which the “activity change, negative = inhibition” value is inactive: -27.7%.

In the case of `CN1C(=O)CCS(=O)(=O)C1c1ccc(Cl)cc1` (configuration not stated), the activity change, negative = inhibition entry was “inactive”.

As for `Cc1cccc(Cc2cnc[nH]2)c1C`, the “activity change, negative = inhibition” value is inactive: 4.04%.

In the case of `O=C(COc1cc(Cl)ccc1Cl)Nc1ccc(Cl)cc1C(=O)c1ccccc1`, the “activity change, negative = inhibition” value is inactive: -2.62%.

`c1ccc2c(c1)sc1ccccc12`: the “activity change, negative = inhibition” value is inactive: -1.15%.

As to `NC(=O)CS(=O)C(c1ccccc1)c1ccccc1` (configuration not stated), the “activity change, negative = inhibition” value is inactive: -0.694%.

In the case of `O=C(Nc1ccc(F)c([N+](=O)[O-])c1)c1cccn(Cc2ccccc2)c1=O`, the “activity change, negative = inhibition” value is inactive: -12.9%.

In the case of `Cc1cccc(OCC(=O)N2CCN(CCc3ccccn3)CC2)c1`, the “activity change, negative = inhibition” value is inactive: -15.7%.

Consider `C[C@]12CC[C@H]3[C@@H](CCC4=CC(=O)CC[C@@H]43)[C@@H]1CC[C@@H]2OC(=O)CCc1ccco1`, for which the “activity change, negative = inhibition” value was inactive: 0.73%.

Consider `COP(=S)(OC)Oc1ccc(Sc2ccc(OP(=S)(OC)OC)cc2)cc1`, for which the “activity change, negative = inhibition” value is inactive: -0.603%.

As to `CCCCCCC(=O)CCCCCC/C=C/C[C@@H](O)[C@H](O)[C@@](N)(CO)C(=O)O`, the “activity change, negative = inhibition” value is inactive: 0.163% [at 25.2 µM].

Turning to `COc1ccc2c(c1OC)C(=O)O[C@H]2[C@@H]1c2cc3c(cc2CCN1C)OCO3`, the “activity change, negative = inhibition” value was inactive: 3.69%.
